# Some of the results follow. At the low end of the ranking, values are background and their order means little.
# Target: SIX1-Q177R homeodomain (UniProt Q15475)
# Test: universal protein binding microarray
# Settings: Universal all-10-mer PBM (8x60K, AMADID 030236), 300 nM GST-tagged protein, Alexa Fluor 488 anti-GST; buffer, salt, pH and temperature not stated; high values mean tight binding; most listed sequences are background and not binding sites; double strand, one strand shown
row,Sequence,binding signal
1,AATGCTAG,-0.0888 E-score
2,ATTACGTA,-0.148 E-score
3,AATTATAA,-0.307 E-score
4,CACCTCTG,0.287 E-score
5,ACCGGCAT,-0.126 E-score
6,AAGCCTTC,-0.106 E-score
7,GCAACGTA,-0.299 E-score
8,CAAGATCC,-0.00191 E-score
9,AGGCTGGC,-0.154 E-score
10,GTCGCGCA,-0.0878 E-score
11,ATTTATGA,-0.207 E-score
12,TGAAGAAA,-0.24 E-score
13,CGCCTGTC,-0.203 E-score
14,AAACTGTC,-0.194 E-score
15,GACCTGAC,0.0563 E-score
16,GCTACTGA,-0.0122 E-score
17,CTATAGTC,-0.168 E-score
18,CCGAGCAC,0.178 E-score
19,CCCCACGG,0.137 E-score
20,ACAACCAA,-0.104 E-score
21,TTAGAAAA,-0.178 E-score
22,AACAGAAT,-0.182 E-score
23,ATTTGTTC,-0.0296 E-score
24,AGTTCGCA,-0.257 E-score
25,ACTAAGGA,-0.0102 E-score

row,Sequence,binding signal
1,TATCCAAA,0.0593 E-score
2,ATTGGAGG,-0.165 E-score
3,AGCCGGAG,0.115 E-score
4,GGCACACA,0.179 E-score
5,CGCTCTTC,-0.154 E-score
6,AAGAGAAT,-0.4 E-score
7,ATCGCATA,-0.0951 E-score
8,AACCAGCC,-0.234 E-score
9,GAGTAAAC,-0.00017 E-score
10,CGACTTTC,-0.232 E-score
11,GTTACGCA,0.141 E-score
12,AGCGGGGA,0.139 E-score
13,CAATTTAA,-0.0626 E-score
14,AGTGCCTC,0.0084 E-score
15,TGCATAAA,0.0382 E-score
16,CCACATCA,-0.0761 E-score
17,CCCCCAAG,0.227 E-score
18,CATGATCA,-0.154 E-score
19,GGTTGTTA,-0.0393 E-score
20,ACATGACT,-0.093 E-score
21,ACCTAAGA,-0.0597 E-score
22,GTAAGATA,0.0906 E-score
23,ACACAGCA,0.11 E-score
24,CCTAGTAA,0.0864 E-score
25,CGCATAGC,-0.0178 E-score

row,Sequence,binding signal
1,GCTCTGAA,-0.149 E-score
2,ACCTCCAT,-0.0105 E-score
3,CGGACGCA,0.00688 E-score
4,ACACGAGC,0.329 E-score
5,GCACACTA,0.2 E-score
6,AGCCGGTC,-0.173 E-score
7,AGTTAATG,-0.14 E-score
8,AGAAGGTC,-0.0424 E-score
9,CGATATAG,0.0475 E-score
10,AGTGGACC,-0.138 E-score
11,AGGTGCCG,0.0502 E-score
12,CATAGTAA,0.0931 E-score
13,CTCTCAAA,-0.112 E-score
14,GATCCCCA,0.267 E-score
15,ACTCGTGG,-0.0125 E-score
16,ATGGTGCA,0.117 E-score
17,ATATGCAA,-0.166 E-score
18,AATCTCGT,-0.211 E-score
19,ACTCGGGG,0.21 E-score
20,CGCTTCCG,-0.215 E-score
21,AGCCGTCG,-0.161 E-score
22,GTGCCGAA,0.0484 E-score
23,AAGAGAGG,-0.211 E-score
24,CTGACTAC,-0.0271 E-score
25,AGGCGGAG,-0.000365 E-score

row,Sequence,binding signal
1,CTTTGCCA,-0.328 E-score
2,GAAGGAGC,-0.174 E-score
3,CCTCTCAC,0.0492 E-score
4,CATTTCCA,-0.00441 E-score
5,AGGAACGG,-0.201 E-score
6,TAGGACTA,-0.173 E-score
7,TGATGTAA,0.0254 E-score
8,CCGCGGTA,-0.00756 E-score
9,AGCATCAT,-0.134 E-score
10,AACGGGGC,-0.248 E-score
11,ACTTCTCC,-0.14 E-score
12,CGGCTGCC,-0.0105 E-score
13,GACGATAA,-0.0592 E-score
14,AAATCAGG,-0.102 E-score
15,CGACCAGA,-0.0704 E-score
16,AGTCCGGA,-0.113 E-score
17,CGTGCTCC,0.0379 E-score
18,ATGTCTCA,-0.0415 E-score
19,CCCACCAG,0.108 E-score
20,AGCGCGCT,0.00085 E-score
21,GGATTTGA,-0.0786 E-score
22,CGCACCAA,0.131 E-score
23,AACAGCAT,-0.239 E-score
24,CCCATGTA,-0.0943 E-score
25,GTATACAA,0.155 E-score

row,Sequence,binding signal
1,ACCCTAAG,0.185 E-score
2,GCTGCGCA,-0.233 E-score
3,ACAGGACG,-0.0137 E-score
4,GCTACGCA,-0.171 E-score
5,GAGTTCTA,-0.00646 E-score
6,CCATGTTA,-0.0742 E-score
7,GCTCCTCA,-0.194 E-score
8,GATGAACC,0.0658 E-score
9,CACCTGTC,0.224 E-score
10,GCCAGTCA,-0.122 E-score
11,CGCTATGC,0.0293 E-score
12,GAGGGCCC,-0.166 E-score
13,AGTCTGTA,-0.283 E-score
14,ATGCTAAT,-0.233 E-score
15,CTGAGAAC,0.0938 E-score
16,ACGATACA,0.187 E-score
17,CCATTACA,0.162 E-score
18,ACATCCCA,-0.173 E-score
19,CGCCGTAA,-0.0507 E-score
20,AGGCTCTG,-0.3 E-score
21,ATGTGTTG,0.0518 E-score
22,CATCGTTA,-0.104 E-score
23,CGCTAACG,-0.14 E-score
24,ATCCAACG,-0.14 E-score
25,CGTTTGCA,-0.159 E-score

row,Sequence,binding signal
1,CGATAACC,0.0101 E-score
2,ATGTGGCG,-0.115 E-score
3,GTACTGCA,0.00894 E-score
4,CAAGAGGC,-0.316 E-score
5,TCACAAGA,-0.0879 E-score
6,AAGATCGA,-0.131 E-score
7,TACATCCA,-0.0249 E-score
8,ACTGTACT,-0.143 E-score
9,ACTCACAC,0.3 E-score
10,CGAATGAG,-0.028 E-score
11,AGGGTGGA,0.0968 E-score
12,GAACGAAA,-0.241 E-score
13,ATAGACAT,-0.0459 E-score
14,ATCGTGCA,0.0543 E-score
15,AGCATGAG,0.0403 E-score
16,GGTTTTAA,0.0294 E-score
17,CCGGGTCG,0.248 E-score
18,CACCTGGA,0.224 E-score
19,AACGATAA,-0.268 E-score
20,CTTAGCGA,-0.0464 E-score
21,CCTTATTC,-0.187 E-score
22,CAAACCAA,-0.151 E-score
23,AACGTACG,-0.237 E-score
24,CGCCATGA,-0.0432 E-score
25,GAAAACCA,-0.142 E-score

row,Sequence,binding signal
1,AAGGCACG,-0.193 E-score
2,GGCGCATA,0.026 E-score
3,TCAAACCA,-0.0387 E-score
4,CACCGCAC,0.333 E-score
5,AGACTTGC,-0.22 E-score
6,ATAGGATG,-0.26 E-score
7,TGGGTACA,0.29 E-score
8,AGAGTCTG,-0.271 E-score
9,AATTGAGT,0.0195 E-score
10,CTAGATAC,0.165 E-score
11,CCCTCATC,0.0516 E-score
12,AGGTCGTG,0.264 E-score
13,ACTTTACA,0.228 E-score
14,GAGGCCCA,-0.197 E-score
15,ACTCACGG,-0.117 E-score
16,CGCCAGGC,0.0238 E-score
17,CTTTAAGA,-0.134 E-score
18,CGTTACAG,-0.0829 E-score
19,TAATCAGA,0.0787 E-score
20,ACGGTGAG,0.0108 E-score
21,GACCCACC,0.116 E-score
22,CGCATAGA,-0.206 E-score

# Reference: paper PMC10668032
